# Laboratory results taken from PubChem BioAssay AID493208 (National Center for Advancing Translational Sciences (NCATS), 2011).
# The whole screen tested about 44,000 compounds, of which about 340 (0.77%) were called active. About 5% were inconclusive and are not listed. The call rests on the fitted dose curve; in most records, active means well fitted inhibition curve with a large enough effect; inconclusive means small, poorly fitted or top-dose-only effect; inactive means flat fitted curve, though single readings scatter. The list shows a part of the results.
# Assay: Acumen qHTS Assay for Inhibitors of the mTORC1 Signaling Pathway in MEF (Tsc2-/-, p53-/-) Cells: Sytravon; further: nearly all actives have a fitted effect of over 50% in size;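 on activity change, negative = inhibition: plate controls were DMSO for no effect and rapamycin for full effect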
# Conditions: phospho-rpS6 immunofluorescence/PI, 24 h; series mostly up to 38.3 µM; activity change, negative = inhibition: at the top concentration
# Outline: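 Compounds act on Tsc2-/-, p53-/- fibroblasts carrying an empty vector for 24 h before fixation and dual staining for phospho-S6 and DNA (propidium iodide). Values are percentages of cells above a rapamycin-defined pS6/PI threshold.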
# Potency means the concentration at half of the fitted maximal effect.
Structure (SMILES),"activity change, negative = inhibition",Potency
Cc1nc(-c2ccccc2)sc1-c1ccc(SCC(=O)NCc2ccccc2)nn1,inactive: 4.9%,–
CCOC(=O)c1ccc(Nc2nc3nonc3nc2Nc2cccc(C)c2C)cc1,inactive: -20.1%,–
Cc1coc2cc3oc(=O)c(CC(=O)NCc4ccccc4)c(C)c3cc12,inactive: -8.8%,–
CC(=O)N1CCCc2cc(S(=O)(=O)N3CCCC(C(=O)Nc4ccc(C)c(C)c4)C3)ccc21 (configuration not stated),inactive: -4.49%,–
CC(C)(C)c1ccc(S(=O)(=O)Nc2ccc(O)c(Sc3nc4ccccc4s3)c2)cc1,inactive: 11.9%,–
Cc1ccc(C(=O)Nc2ccc3oc(-c4cccnc4)nc3c2)c(Cl)c1,inactive: 5.21%,–
CCOc1ccccc1NC(=O)c1cc(S(=O)(=O)NC2CCCC2)ccc1F,inactive: 11.2%,–
COc1cccc(-c2cnc(NCc3ccccc3Cl)n2C)c1,inactive: -29.6%,–
Cc1ccc(S(=O)(=O)Nc2cc3c(cc2Cl)n(C)c(=O)c(=O)n3C)cc1,inactive: 0.541%,–
CCOc1ccc2nc(N3CCC(C(=O)Nc4c(C)cccc4C)CC3)sc2c1,inactive: 1.93%,–
Cc1ccc(-n2ncc(C(=O)N3CCC(c4ccccc4)C3)c2C2CCN(C(=O)OC(C)(C)C)CC2)cc1 (configuration not stated),inactive: 4.39%,–
CCCCOc1ccc(CNC(=O)c2ccc(NC(=O)N3CCSc4ncccc43)cc2)cc1,inactive: -3.18%,–
O=S(=O)(Nc1cccc(-c2ccc(N3CCOCC3)nn2)c1)c1ccc(F)cc1F,inactive: -11.7%,–
O=C(Nc1nc(-c2ccc(Br)cc2)ns1)c1ccccc1F,inactive: 1.14%,–
CCCc1nn2c(C)c(-c3ccccc3)nc2s1,inactive: -3.17%,–
COC(=O)CCN(C(=O)c1c(C)oc2ncnc(N3CCOCC3)c12)c1ccccc1,inactive: 1.43%,–
Cc1cccc(N2CCN(C(=O)C3CCN(S(=O)(=O)c4ccc5c(c4)oc(=O)n5C)CC3)CC2)c1C,inactive: -0.0585%,–
Cc1cc(C)c2oc(C(=O)Nc3ccc(S(=O)(=O)N(C)c4ccccc4)cc3)cc(=O)c2c1,inactive: 3.11%,–
O=c1c2c3c(sc2n(Cc2cc(=O)n4ccccc4n2)c(=O)n1-c1ccc(Cl)cc1)CCC3,inactive: 12.5%,–
O=C(/C=C/c1ccccc1)N1CCN(Cc2cc(=O)n3nc(-c4ccccc4)sc3n2)CC1,inactive: 0%,–
CCN(c1cc(C)cc(C)c1)S(=O)(=O)c1nnc(NC(=O)c2cccc(F)c2)s1,inactive: 8.5%,–
CCCOc1ccc(C2C(=O)N(C3CCCCCC3)CC(=O)N2CCCOCC)cc1OC (configuration not stated),inactive: 9.66%,–
Cc1ccccc1NC(=O)c1sc2nc(N3CCOCC3)c3c(c2c1N)CC(C)(C)OC3,inactive: -4.55%,–
CCOc1ccccc1N(C)C(=O)Cn1nc(Cc2cccnc2)c2ccccc2c1=O,inactive: 1.06%,–
COc1cc(NC(=O)N2CCN(c3cc(-c4noc(C)n4)ccc3C)CC2)cc(OC)c1OC,inactive: -0.517%,–

Structure (SMILES),"activity change, negative = inhibition",Potency
Cc1ccc(NC(=O)/C(C#N)=C\c2ccc(Cl)cc2Cl)cc1C,inactive: -1.89%,–
COc1ccc2c(c1)c1c(c(=O)n(CCc3ccccc3)c(=O)n1Cc1ccc(Cl)cc1)n2C,inactive: -1.35%,–
CC(C)c1ccccc1NC(=O)CSc1nnc(COc2ccccc2Cl)o1,inactive: -7.51%,–
CCN(c1ccc(C)cc1)S(=O)(=O)c1nnc(NC(=O)c2cccs2)s1,inactive: -1.21%,–
CCOc1ccccc1NC(=O)N1CCN(S(=O)(=O)c2ccc3c(ccn3C)c2)CC1,inactive: -1.66%,–
Nc1c(-c2nc(-c3ccccc3)no2)nnn1CC(=O)Nc1ccccc1,inactive: 0%,–
COc1ccccc1CNC(=O)Cn1ncc2c(C)n(Cc3ccccc3Cl)c(C)c2c1=O,inactive: 2.04%,–
Cc1ccc(-c2ccc(CCC(=O)O)n2-c2ccc(C(C)C)cc2)cc1,inactive: 2.96%,–
CCN(CC)CCNC(=O)c1cc2c(=O)[nH]c3ccc(C)cc3c2s1,inactive: -1.18%,–
O=C(NCc1ccccn1)c1nn(-c2ccccc2Cl)nc1CO,inactive: 2.27%,–
Cc1ccccc1NC(=O)c1ccc(CNS(=O)(=O)c2ccc3c(c2)C(C)(C)C(=O)N3C)cc1,inactive: 1.69%,–
Cc1cc(NC(=O)CSc2ncc(C(=O)Nc3ccccc3)c(=O)n2C)no1,inactive: 0.0117%,–
CCN(CC)C(=O)C1=C(C)Nc2nc3ccccc3n2C1c1ccc(Cl)cc1 (configuration not stated),inactive: -0.0124%,–
CSc1ncc(C(=O)Nc2cccc(Cl)c2C)c(-c2ccccc2)n1,inactive: 0%,–
CCNC(=O)CC1C(=O)N(c2ccc(F)cc2)C(=O)N1Cc1ccc(C)cc1 (configuration not stated),inactive: -2.6%,–
Cc1ccc(Cl)cc1N(C)C(=O)c1cc2ccc3cccnc3c2[nH]1,inactive: -11.6%,–
CCCCOc1ccc(C(=O)NCCc2csc3nc(-c4ccccc4F)nn23)cc1,inactive: -1.86%,–
CS(=O)(=O)N1CCC(N2CCN(Cc3ccc(F)cc3)C(=O)C2=O)CC1,inactive: -0.672%,–
CCOc1ccccc1C(=O)NCC(c1ccc(N(C)C)cc1)N1CCCC1 (configuration not stated),inactive: 0%,–
CSc1ccc(CCNC(=O)c2ccc3c(c2)c(C)c(C)n3Cc2ccc(F)cc2)cc1,inactive: -23%,–
CCn1c(CN2CCN(C)CC2)nc2cc(NC(=O)c3cc(OC)c(OC)c(OC)c3)ccc21,inactive: 0.307%,–
CC(=O)c1cccc(NC(=O)c2cc(-c3ccc4c(c3)OCCO4)on2)c1,inactive: -15.8%,–
CCOC(=O)CNC(=O)Cn1nc(N2CCN(c3ccccc3)CC2)ccc1=O,inactive: -1%,–
COc1ccc(CCNC(=O)c2cc3c(=O)[nH]c4ccc(C)cc4c3s2)cc1OC,inactive: -13%,–
CCN(CC)C(=O)C1CCCN(c2ncnc3c2nc2n3CCCCC2)C1 (configuration not stated),inactive: 2.64%,–

Structure (SMILES),"activity change, negative = inhibition",Potency
COC(=O)c1ccccc1NC(=O)CCCS(=O)(=O)c1nc(-c2ccccc2OC)cc(C(F)(F)F)n1,inactive: -1.35%,–
CCOc1ccccc1CNC(=O)CN1C(=O)C2CCCCN2c2ccc(C(=O)N(C)C)cc21 (configuration not stated),inactive: -0.452%,–
COc1ccc(CCCc2nnc(SCC(=O)Nc3ccc(Cl)cc3)o2)cc1,inactive: -8.61%,–
CCOc1ccc(OCC)c(NC(=O)c2c(C)nn(-c3ccccc3)c2-n2cccc2)c1,inactive: -7.89%,–
Cc1nn(C)c2c1c(C(F)(F)F)cc(=O)n2CC(=O)NC(C)(C)C,inactive: 7.51%,–
CCc1ccccc1NC(=O)c1ccc2[nH]c(C)c(C)c2c1,inactive: 2.17%,–
Cc1oc2ncnc(N3CCCCC3)c2c1C(=O)Nc1cccc(F)c1,inactive: 3.59%,–
COc1ccc(-c2cc(-c3ccc(F)cc3)nc3c2COc2ccccc2-3)cc1,inactive: 6.9%,–
CCc1ccc(CNC(=O)c2sc3ncnc(N(C)C4CCCCC4)c3c2C)cc1,inactive: 2.73%,–
Cc1ccccc1CN1C(=O)C(O)(CC(=O)c2cccc(Br)c2)c2ccccc21 (configuration not stated),inactive: -14%,–
CCOc1ccccc1C1Nc2ccccc2-c2nnc(SCc3ccccc3)nc2O1 (configuration not stated),inactive: -13.1%,–
Cc1c(C(=O)NCc2ccccc2)oc2c1-c1[nH]ncc1CC2,inactive: 2.78%,–
COc1ccc(Nc2cc(C(=O)NCCCN(C)C3CCCCC3)c3ccccc3n2)cc1,inactive: -79.7%,–
CCOc1ccc(-c2nnc(SCC(=O)NCCc3ccccc3)nc2-c2ccc(OCC)c(OC)c2)cc1OC,inactive: -6.56%,–
COc1ccc(Br)cc1CNC(=O)c1ccc(-n2c(C)cc3c2CCC(C)C3)cc1 (configuration not stated),inactive: -23.3%,–
Cc1cc(O)c(CN2CCN(c3ccc(F)cc3)CC2)c2oc(=O)cc(C)c12,inactive: 2.04%,–
Cc1cccc(C(=O)Nc2nnc(S(=O)(=O)N3c4ccccc4CC3C)s2)c1 (configuration not stated),inactive: 7.84%,–
COCCCn1c(=N)c(C(=O)NC2CCCC2)cc2c(=O)n3cc(C)ccc3nc21,inactive: 0.335%,–
CCn1c(=O)cc(OCC(=O)Nc2ccccc2Cl)c2ccccc21,inactive: -0.386%,–
CCOc1ccc(CCNC(=O)c2nn(-c3ccc(OC)cc3)c(=O)c3c2c2ccccc2n3C)cc1OCC,inactive: 4.64%,–
O=C(O)CCc1ccc(-c2ccc(Cl)cc2)n1-c1cccc(C(F)(F)F)c1,inactive: -10.2%,–
CCOC(=O)c1cnc(NCc2ccc(Cl)cc2)c2ccccc12,inactive: -4.63%,–
Cc1ccc2[nH]c3c(=O)n(CC(=O)N(C)Cc4ccccc4)ncc3c2c1,inactive: -7.32%,–
O=C(Cc1ccc(F)cc1)NCCc1csc(-c2ccc(C(F)(F)F)cc2)n1,inactive: -13.1%,–
Cn1c(CN2CCCCC2)nc2cc(NC(=O)c3ccc(Cl)cc3)ccc21,inactive: -11.7%,–

Structure (SMILES),"activity change, negative = inhibition",Potency
CCN(CC)C(=O)c1ccccc1NC(=O)c1cccc(S(=O)(=O)N2CCC(C)CC2)c1,inactive: -0.527%,–
O=C(NC1CCCCC1)/C(=C/c1ccc(Cl)cc1)NC(=O)c1ccccc1,–,active: 14.7 µM
Cc1ccc(C(=O)CSc2nnc3ccc4ccccc4n23)cc1,inactive: -15.5%,–
N#Cc1cc2c(=O)n3ccccc3nc2n(-c2nnc(SCc3ccccc3)s2)c1=O,inactive: -5.71%,–
Cc1ccc(NC(CNS(=O)(=O)c2ccc(Cl)cc2)c2ccccc2)cc1 (configuration not stated),inactive: -15%,–
Cc1ccc(CNC(=O)C2CCN(c3ncnc4c3nc3n4CCCCC3)CC2)cc1,inactive: -4.06%,–
CCC(=O)N1c2ccc(S(=O)(=O)N3CCN(c4ccccc4Cl)CC3)cc2CC1C (configuration not stated),inactive: -0.682%,–
Cc1cccc(N(C)c2nc3ccc(C)cc3n3nnnc23)c1,inactive: 0%,–
CCOC(=O)C1CCCN(S(=O)(=O)c2cc(-c3cc(C)no3)ccc2C)C1 (configuration not stated),inactive: 3.16%,–
Cc1cccc(C)c1Nc1c(-c2ccccc2O)nc2ncccn12,inactive: -14%,–
Cc1ccccc1CNC(=O)c1ccc2c(c1)N(Cc1ccccc1)CCS2,inactive: -7.32%,–
O=C(CCCn1c(=O)c2cccn2c2cccnc21)Nc1ccccc1Br,inactive: -0.55%,–
O=c1oc2ccc3ccccc3c2cc1-c1nnc(Nc2cccc(F)c2)s1,inactive: 4.69%,–
CCOC(=O)c1c(NC(=O)/C=C/c2ccc(OCC)cc2)sc2c1CCC2,inactive: -2.24%,–
CCCCn1c(=O)c2oc3ccccc3c2n(CC(=O)Nc2ccccc2OC)c1=O,inactive: -5.23%,–
Cc1ccc(CNC(=O)Cn2cc(C(=O)c3ccc(Cl)cc3)c(=O)c3ccc(C)nc32)cc1,inactive: -16%,–
CCc1ccc(C2=C(C)C(N3CCC(C(=O)NCc4ccc(C)o4)CC3)=NS2(=O)=O)cc1,inactive: 0.123%,–
CCCCNC(=O)[C@@H](c1ccccc1)N1Cc2ccccc2C1=O,inactive: 2.52%,–
Cc1ccc(S(=O)(=O)N2CCCc3cc(NC(=O)c4c(F)cccc4F)ccc32)cc1,inactive: 7.97%,–
Cc1nn(CC(=O)NCc2ccccc2Br)c(=O)c2cc3occc3n12,inactive: 0.347%,–
O=C(CCn1c(=O)c2cccn2c2cccnc21)N1CCN(c2ccc(Cl)cc2)CC1,inactive: -1.22%,–
Cc1cccc(OCCCCn2c(C3CC(=O)N(c4ccc(C)cc4C)C3)nc3ccccc32)c1 (configuration not stated),inactive: -0.621%,–
